Some of the results follow.

The subject of one assay is HSkMC (human skeletal muscle cells). Put plainly: cytotoxicity call (relative viability < 0.9). Conditions: 10 µM.
`CCCNC(=O)N1C[C@@H]2[C@H](c3ccccc31)[C@H](CO)N2C(=O)CN1CCOCC1`: the cytotoxicity call was “inactive”.
Turning to `C[C@@H]1CCCCO[C@@H](CN(C)S(=O)(=O)c2cn(C)cn2)[C@H](C)CN([C@H](C)CO)C(=O)c2cc(NS(=O)(=O)c3ccccc3)ccc2O1`, the cytotoxicity call was “inactive”.
Still for that read-out and setting: the entry for `Cc1noc(C)c1NC(=O)Nc1ccc2c(c1)C(=O)N([C@@H](C)CO)C[C@H](C)[C@H](CN(C)Cc1ccncc1)OCCCC[C@H](C)O2` is “inactive”; for `CNC[C@@H]1OCCCC[C@@H](C)Oc2ccc(NC(=O)Nc3ccc(C(F)(F)F)cc3)cc2C(=O)N([C@@H](C)CO)C[C@@H]1C` it is “inactive”; for `CO[C@@H](CN(C)S(=O)(=O)c1ccc(F)cc1)[C@@H](C)CN([C@H](C)CO)S(=O)(=O)c1cccc(Cl)c1` it is “inactive”.
On the same count and under the same terms, the entry for `CC(C)(C)[S@@](=O)N1Cc2cc(C(=O)NCc3ccc4c(c3)OCO4)nc(CCN3CCOCC3)c2[C@H]1CCO` is “inactive”.
With `C[C@@H]1CN([C@H](C)CO)C(=O)Cc2cc(NC(=O)CCC(F)(F)F)ccc2O[C@@H]1CN(C)Cc1ccc(Oc2ccccc2)cc1`, the cytotoxicity call is “inactive”.
Take `C[C@H](CO)N1C[C@H](C)[C@@H](CN(C)C(=O)Nc2ccc(C(F)(F)F)cc2)OCCCC[C@H](C)Oc2ccc(NC(=O)Cc3ccccc3)cc2C1=O`: the cytotoxicity call is “inactive”.
The same measure, in the same setting: the entry for `O=C(Cn1c(=O)n(-c2ccccc2)c(=O)n1CC(=O)N1CCOCC1)N1CCOCC1` is “inactive”.

A further assay has as its system HepG2. In words: cytotoxicity call (relative viability < 0.9). Conditions: 10 µM.
Consider `NC(=O)NC1NC(=O)NC1=O` (centres undefined), for which the cytotoxicity call was “inactive”.
With `Cc1noc(C)c1NC(=O)Nc1ccc2c(c1)C(=O)N([C@@H](C)CO)C[C@H](C)[C@H](CN(C)CC1CCCCC1)OCCCC[C@@H](C)O2`, the cytotoxicity call was “inactive”.
Same read-out and setting: the entry for `C[C@@H]1CN([C@H](C)CO)C(=O)CCCn2cc(nn2)CO[C@@H]1CN(C)C(=O)Nc1ccnc(N2CCOCC2)c1` is “inactive”.
Same read-out and setting: the entry for `C[C@@H]1CN([C@@H](C)CO)S(=O)(=O)c2ccc(C#Cc3ccccn3)cc2O[C@H]1CN(C)Cc1ccccc1` is “inactive”.
Still for that read-out and setting: the entry for `C[C@H](CO)N1C[C@H](C)[C@H](CN(C)C(=O)Nc2cccc3ccccc23)Oc2ccc(NC(=O)Nc3ccccc3)cc2C1=O` is “inactive”; for `CC(C)(C)C(=O)C(Oc1ccc(Cl)cc1)n1ccnc1` (centres undefined) it is “inactive”; for `CS(=O)(=O)N1C[C@H](O)COC[C@H]2O[C@@H](CC(=O)NCc3ccccc3)CC[C@@H]21` it is “inactive”.
For the molecule `C[C@H](CO)N1C[C@H](C)[C@H](CN(C)S(=O)(=O)c2cccs2)Oc2c(NS(C)(=O)=O)cccc2C1=O`, the cytotoxicity call is “inactive”.
Regarding `O=C(C[C@H]1CC[C@H]2[C@@H](COC[C@@H](O)CN2S(=O)(=O)c2ccc(Cl)cc2)O1)N[C@@H]1CCN(Cc2ccccc2)C1`, the cytotoxicity call was “active”.
With `Cc1noc(C)c1S(=O)(=O)Nc1ccc2c(c1)C(=O)N([C@@H](C)CO)C[C@H](C)[C@H](CN(C)C)OCCCC[C@@H](C)O2`, the cytotoxicity call was “inactive”.
Still for that read-out and setting: the entry for `C[C@H]1CN([C@@H](C)CO)S(=O)(=O)c2ccc(C#Cc3ccccn3)cc2O[C@@H]1CN(C)Cc1ccccc1` is “inactive”.
In the case of `O=P(O)(O)C(Sc1ccc(Cl)cc1)P(=O)(O)O`, the cytotoxicity call is “inactive”.
The same measure, in the same setting: the entry for `COc1ccc(S(=O)(=O)Nc2ccc3c(c2)C(=O)N([C@@H](C)CO)C[C@H](C)[C@H](CN(C)CC2CC2)O3)cc1` is “inactive”; for `COc1ccc2c3c(n(c2c1)C)[C@H](CO)N(C[C@]13CCN(CC1)C(=O)c1ccncc1)C(=O)C1CCOCC1` it is “inactive”; for `C[C@H]1CCCCO[C@@H](CN(C)C(=O)Nc2ccccc2)[C@@H](C)CN([C@@H](C)CO)C(=O)c2cc(NS(=O)(=O)c3cccs3)ccc2O1` it is “inactive”.
On the same count and under the same terms, the entry for `O=C(C[C@H]1C=C[C@H](NC(=O)CN2CCOCC2)[C@H](CO)O1)NC1CCCCC1` is “inactive”; for `O=C(C[C@H]1CC[C@H]2[C@@H](COC[C@@H](O)CN2C(=O)Nc2ccc(Cl)c(Cl)c2)O1)NCc1ccncc1` it is “inactive”.
As for `COc1cccc(NC(=O)N(C)C[C@@H]2OCc3ccccc3-c3c(n(C)c4ccccc34)C(=O)N([C@@H](C)CO)C[C@@H]2C)c1`, the cytotoxicity call was “inactive”.
On the same count and under the same terms, the entry for `C[C@@H]1CN([C@@H](C)CO)S(=O)(=O)c2ccc(C3=CCCCC3)cc2O[C@@H]1CN(C)C(=O)C1CCOCC1` is “inactive”; for `C[C@H](CO)N1C[C@H](C)[C@H](CN(C)S(=O)(=O)c2cn(C)cn2)Oc2ccc(NC(=O)c3ccncc3)cc2CC1=O` it is “inactive”.
Same read-out and setting: the entry for `C[C@@H]1CN([C@H](C)CO)C(=O)c2cccc(NS(=O)(=O)c3ccc(F)cc3)c2O[C@@H]1CN(C)S(=O)(=O)c1ccccc1` is “inactive”; for `C[C@H]1CN([C@@H](C)CO)C(=O)c2cc(NC(=O)CCCN(C)C)ccc2O[C@H]1CN(C)S(=O)(=O)c1cccs1` it is “inactive”; for `C[C@@H]1CCCCO[C@@H](CN(C)C(=O)Nc2ccccc2)[C@@H](C)CN([C@H](C)CO)C(=O)c2cc(NS(=O)(=O)c3cccs3)ccc2O1` it is “inactive”.
Same read-out and setting: the entry for `C[C@@H]1CN([C@H](C)CO)C(=O)c2cc(NC(=O)C3CC3)ccc2O[C@H]1CN(C)S(=O)(=O)c1cccs1` is “inactive”.
On to `CC(=O)N(O)CCCCCNC(=O)CCC(=O)N(O)CCCCCNC(=O)CCC(=O)N(O)CCCCCN`, for which the cytotoxicity call is “active”.
On the same count and under the same terms, the entry for `CN(C)CCCNC(=O)C[C@H]1C=C[C@H](NC(=O)Cc2cccnc2)[C@H](CO)O1` is “inactive”.
Take `Cc1ccc(S(=O)(=O)Nc2ccc3c(c2)C(=O)N([C@H](C)CO)C[C@@H](C)[C@H](CN(C)C(=O)Nc2ccc4c(c2)OCO4)OCCCC[C@@H](C)O3)cc1`: the cytotoxicity call is “inactive”.
On the same count and under the same terms, the entry for `C[C@H](CO)N1C[C@H](C)[C@@H](CN(C)S(=O)(=O)c2cccs2)Oc2c(NS(=O)(=O)c3ccccc3)cccc2C1=O` is “inactive”.
The same measure, in the same setting: the entry for `CN1C(=O)c2cc(NC(=O)c3cscn3)ccc2OC[C@H]2O[C@@H](CC(=O)N3CCOCC3)CC[C@H]21` is “inactive”; for `CCCOc1ccnc2c1c(=O)n(C)c(=O)n2C` it is “inactive”; for `C[C@H](CO)N1C[C@H](C)[C@@H](CN(C)C(=O)C2CCCCC2)OCCCC[C@H](C)Oc2ccc(NC(=O)CCC(F)(F)F)cc2C1=O` it is “inactive”.
Consider `CCCNC(=O)N1C[C@@H]2[C@H](c3ccccc31)[C@H](CO)N2C(=O)CN1CCOCC1`, for which the cytotoxicity call is “inactive”.
Same read-out and setting: the entry for `C[C@@H]1CCCCO[C@@H](CN(C)S(=O)(=O)c2cn(C)cn2)[C@H](C)CN([C@H](C)CO)C(=O)c2cc(NS(=O)(=O)c3ccccc3)ccc2O1` is “inactive”; for `Cc1noc(C)c1NC(=O)Nc1ccc2c(c1)C(=O)N([C@@H](C)CO)C[C@H](C)[C@H](CN(C)Cc1ccncc1)OCCCC[C@H](C)O2` it is “inactive”.
On the same count and under the same terms, the entry for `CNC[C@@H]1OCCCC[C@@H](C)Oc2ccc(NC(=O)Nc3ccc(C(F)(F)F)cc3)cc2C(=O)N([C@@H](C)CO)C[C@@H]1C` is “inactive”.
On the same count and under the same terms, the entry for `CO[C@@H](CN(C)S(=O)(=O)c1ccc(F)cc1)[C@@H](C)CN([C@H](C)CO)S(=O)(=O)c1cccc(Cl)c1` is “inactive”; for `CC(C)(C)[S@@](=O)N1Cc2cc(C(=O)NCc3ccc4c(c3)OCO4)nc(CCN3CCOCC3)c2[C@H]1CCO` it is “inactive”.
On to `C[C@@H]1CN([C@H](C)CO)C(=O)Cc2cc(NC(=O)CCC(F)(F)F)ccc2O[C@@H]1CN(C)Cc1ccc(Oc2ccccc2)cc1`, for which the cytotoxicity call was “active”.
In the case of `C[C@H](CO)N1C[C@H](C)[C@@H](CN(C)C(=O)Nc2ccc(C(F)(F)F)cc2)OCCCC[C@H](C)Oc2ccc(NC(=O)Cc3ccccc3)cc2C1=O`, the cytotoxicity call is “inactive”.
On the same count and under the same terms, the entry for `O=C(Cn1c(=O)n(-c2ccccc2)c(=O)n1CC(=O)N1CCOCC1)N1CCOCC1` is “inactive”.

(Values after the antibiotic and cytotoxicity screens of Wong et al. (2023).)
